Data taken from paper PMC6919601, “Identification of Plasmodium dipeptidyl aminopeptidase allosteric inhibitors by high throughput screening” (PLoS ONE, 2019).
Among all 110,000 compounds or so, about 230 (0.21%) showed an effect of 50% or more. Some of the results follow.

molecular target: DPAP1 (Plasmodium falciparum, UniProt Q8IIJ9); assay: primary screen, percent inhibition; read by cleavage of a fluorogenic dipeptide substrate; higher = more effect of the substance; design: species or system P. falciparum D10 trophozoite lysates; single well
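Further: 30 min substrate incubation versus DMSO and 10 µM JCP410 controls.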

Sequence of DPAP1 (Q8IIJ9 whole entry, looked up): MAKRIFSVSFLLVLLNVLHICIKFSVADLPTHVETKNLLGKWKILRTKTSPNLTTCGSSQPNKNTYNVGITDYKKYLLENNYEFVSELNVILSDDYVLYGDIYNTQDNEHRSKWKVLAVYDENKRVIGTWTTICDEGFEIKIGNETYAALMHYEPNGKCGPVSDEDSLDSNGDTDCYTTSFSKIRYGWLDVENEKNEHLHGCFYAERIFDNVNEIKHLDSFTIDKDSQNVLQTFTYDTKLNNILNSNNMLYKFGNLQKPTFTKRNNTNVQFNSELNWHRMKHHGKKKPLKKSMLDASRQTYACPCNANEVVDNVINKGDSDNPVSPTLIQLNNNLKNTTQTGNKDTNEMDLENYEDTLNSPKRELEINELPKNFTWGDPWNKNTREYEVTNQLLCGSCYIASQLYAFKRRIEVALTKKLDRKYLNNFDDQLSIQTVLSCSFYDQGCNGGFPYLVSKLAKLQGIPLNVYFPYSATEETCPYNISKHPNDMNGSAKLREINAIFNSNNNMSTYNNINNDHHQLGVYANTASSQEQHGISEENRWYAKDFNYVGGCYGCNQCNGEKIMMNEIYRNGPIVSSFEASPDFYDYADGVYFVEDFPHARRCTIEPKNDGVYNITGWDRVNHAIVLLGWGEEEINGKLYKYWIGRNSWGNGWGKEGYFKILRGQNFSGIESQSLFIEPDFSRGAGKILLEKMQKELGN

SMILES	% Inhibition @ 10 uM [%]
COc1ccccc1C(=O)N/C(=C\c1ccc2c(c1)OCO2)C(=O)NCc1ccccc1	7.1
C=CCOc1ccc(C2C3CN(C)CC=C3C(C#N)=C(N)C2(C#N)C#N)cc1 (stereo not shown)	-1.11
CCN1CCC(NCCc2ccccc2)CC1	1.88
Cc1nc2c(-c3ccc(F)cc3)c(C)nn2c(C)c1CC(=O)N1CCC(C)CC1	2.57
CCC[C@@H](/C=C/S(=O)(=O)c1ccccc1)NC(=O)[C@H](Cc1ccc(F)cc1)NC(=O)N1CCC(N2CCOCC2)CC1	6.03
COc1ccc(C2C(C#N)=C(N)Oc3[nH]nc(C)c32)cc1CSc1ccccn1 (stereo not shown)	-2.8
Cc1nn(-c2cccc(F)c2)c2c1c(C(F)(F)F)cc(=O)n2CC(=O)N1CCCC1	-4.17
Cc1c(Cl)cccc1NS(=O)(=O)Cc1ccccc1	0.219
CC(C)N(CCCNC(=O)C1CCC(CNS(=O)(=O)c2ccccc2)CC1)Cc1ccccc1 (stereo not shown)	-6.4
CC(=O)Nc1ccc(S(=O)(=O)N2CCCC2)cc1	3.54
NC(=O)C1CCN(C(=O)CCc2nnc3n(CCc4ccccc4)c(=O)c4ccccc4n23)CC1	4.16
CCCNC(=O)C1Sc2nnc(-c3ccccc3)n2NC1c1ccc(OC)cc1 (stereo not shown)	-3.53
CC1CN(C)C(C)CC1NCc1ccccc1 (stereo not shown)	-3.44
CN1N=C(c2ccccc2)CC1=O	17
CC(NC(=O)CSc1nnc(COc2ccccc2Cl)o1)c1ccccc1 (stereo not shown)	4.18
CS(=O)(=O)c1nc(S(=O)(=O)c2ccc(Cl)cc2)c(NCc2ccccc2Cl)s1	1.15
CCOc1ccc(NC(=O)C(=O)NC2CCCCC2)cc1	-0.414
CCOC(=O)c1oc2ccccc2c1C	3.77
CCCOc1ccc(C2C(C(=O)OCC)=CN(C)C=C2C(=O)OCC)cc1	3.45
CC(C=O)NC(=O)C(Cc1ccccc1)NC(=O)Nc1ccccc1 (stereo not shown)	-0.778
C=CCc1cccc2cc(C(=O)Nc3ccccc3Cl)c(=O)oc12	-6.18
Cc1cccc(NC(=O)Cn2cc(S(=O)(=O)N3CCCC3)c(S(=O)(=O)N3CCCC3)c2)n1	-3.94
COP(=O)(OC)C(Nc1ccc(Br)cc1)c1ccc(Cl)cc1 (stereo not shown)	-0.744
O=c1c2c(n3nnnc3n1-c1ccccc1)-c1ccccc1CC21CCCC1	-0.902
CN(C)S(=O)(=O)c1ccc(C(=O)NCC(C)(C)CNC2=NS(=O)(=O)c3ccccc32)cc1	-0.0735

SMILES	% Inhibition @ 10 uM [%]
CCOc1cc(C2c3c(-c4ccccc4O)n[nH]c3C(=O)N2CC2CCCO2)ccc1O (stereo not shown)	-1.35
O=c1c2cnn(-c3ccc(F)cc3)c2ncn1Cc1ccc(C(F)(F)F)cc1	-0.0309
O=C(c1ccc(COc2ccccc2Cl)o1)N1CCN(Cc2ccc3c(c2)OCO3)CC1	-1.33
COc1cc(C2CC(=O)NC3=C2C(=O)CC(C)(C)C3)c(OC)cc1Br (stereo not shown)	2.54
CC(C)c1ccc(C2=CC(c3ccccc3Cl)n3nnnc3N2)cc1 (stereo not shown)	0.219
O=C(Nc1ccc(F)c(Cl)c1)Nc1cccc2ccccc12	-2.18
c1ccc(-c2nc3c4ccccc4nc(NCc4ccco4)n3n2)cc1	-2.42
OCC1CCCN(Cc2ccccc2Br)C1 (stereo not shown)	1.04
O=C(Nc1ccc(Cl)cc1Cl)C1CCCO1 (stereo not shown)	5.31
C=CCC1(C#N)C(=S)N=C2CC(C)(C)CC(O)=C2C1c1ccccc1 (stereo not shown)	4.04
CCc1ccc(OCc2ccc(C(=O)O)o2)cc1	0.413
COc1ccc(-c2noc(-c3nnn(-c4cccc(C(F)(F)F)c4)c3N)n2)cc1	5.71
COc1cc(/C=N/N=C(\N)c2nonc2N)ccc1O	1.91
CS(=O)(=O)N(CC(=O)NCc1ccccc1)C1CCCCC1	-1.89
CC1(C)COC(c2coc3ccccc3c2=O)OC1	-1.11
O=C(O)c1cccc(NC(=O)c2ccc3c(c2)C(=O)N(c2cccc(C(=O)O)c2)C3=O)c1	-1.42
O=C(O)C(Cc1c[nH]cn1)Nc1c2ccccc2nc2ccccc12 (stereo not shown)	2.05
O=S(=O)(Cc1ccccc1)N1CCN(c2ccccc2)CC1	6.5
O=C(NCc1ccco1)c1ccc(F)cc1	-1.86
Cc1nc2nc(C)c(CCC(=O)NC(C)CCc3ccccc3)c(C)n2n1 (stereo not shown)	-0.685
CCOc1ccc2ccccc2c1C(=O)NCCn1c(C)cc2ccccc21	3.11
CCOC(=O)c1sc2c(c1NC(=O)COc1ccc(Cl)cc1)CCCC2	5.88
COc1ccccc1CNC(=O)c1ccc(CN(c2ccccc2)S(=O)(=O)c2ccccc2)cc1	-3.74
O=C(NCc1ccc2c(c1)OCO2)c1cc2c(ccc3ccccc32)oc1=O	1.32
CC(C)C[C@H](NC(=O)OCc1ccccc1)C(=O)N[C@@H](CCc1ccccc1)C(=O)c1nc2cc(Cl)ccc2o1	-5.64

SMILES	% Inhibition @ 10 uM [%]
Cc1nc2ccccc2n1-c1nc(-c2ccco2)cc(C(F)(F)F)n1	-2.47
COc1cccc(Nc2nc(-c3ccc(F)cc3)cs2)c1	0.912
Cc1ccc(-c2cc(C(F)F)nc(S(C)(=O)=O)n2)cc1	-9.05
O=C(NCc1cccc2ccccc12)C(=O)c1c[nH]c2ccccc12	8.87
COc1ccc(Br)cc1C1C(C#N)=C(N)Oc2c1c(C)nn2-c1ccccc1 (stereo not shown)	-4.4
O=C(Cn1c(SCc2ccccc2F)nc2ccncc21)NCC1CCCO1 (stereo not shown)	2.45
CC1=NN(C(=O)c2ccc(COc3ccc4c(c3)CCC4)o2)C(O)(C(F)(F)F)C1 (stereo not shown)	0.389
CN1CCC(O)(c2ccc(Cl)cc2)C(C(=O)c2ccc(Cl)cc2)C1 (stereo not shown)	5.15
CCOC(=O)C1=C(Cn2ccc(C(F)(F)F)n2)NC(=O)NC1c1ccc2c(c1)OCO2 (stereo not shown)	-0.403
CC1CCC(N2CCN(c3cccc(Cl)c3)CC2)CC1 (stereo not shown)	-0.0953
O=C1CCCc2sc([N+](=O)[O-])cc2N1	3.9
O=C1NC2(Nc3ccccc31)C(=O)N(Cc1ccccc1F)c1ccccc12 (stereo not shown)	4.28
O=C(NCc1cccnc1)c1ccc2c(c1)C1C3CCC(C3)C1C(c1ccccc1)N2 (stereo not shown)	-8.95
Cc1ccc(NC(=O)c2ccc(Br)o2)c(C)c1	-3.09
CC1CN=C(Nc2ccccc2)S1 (stereo not shown)	-5.16
O=C1/C(=N\c2ccccc2)c2ccccc2N1CN1CCc2ccccc2C1	0.673
Cc1ccc(-c2csc3ncnc(NCCC(=O)O)c23)cc1	1.52
O=C(NC1CCCCC1NC(=O)c1cccs1)c1cccs1 (stereo not shown)	2.95
Cc1cc2nsnc2c2nsnc12	1.72
CC1CCC2(CC1)C(C#N)C(=O)NC(=O)C2C#N (stereo not shown)	-4.31
COC(=O)c1cc2ccsc2n1Cc1nc(-c2ccc(OC)c(OC)c2)oc1C	-8.2
CC[C@H](NC(=O)[C@H](CCC1CCCCC1)CC(=O)N1CCOCC1)C(=O)c1nnc(-c2ccccc2)o1	-6.98
C=CCSc1nc(N)c2c3c(sc2n1)CCCC3	16.3
Clc1cccc(N2CCN(Cc3ccc4ccccc4c3)CC2)c1	-0.127
CN(C)C(=O)C(NC(=O)c1ccccc1)=C1CCCCC1	3.76

SMILES	% Inhibition @ 10 uM [%]
CCCn1c(C)cc(C)c(C#N)c1=O	2.56
CCOc1nc(-c2ccccc2)cc(-c2ccc(C)cc2)n1	0.827
CCC(NC(=O)Nc1cccnc1)(C(F)(F)F)C(F)(F)F	0.986
COc1cccc2c1NC1CC(C)CCC1C2(C)C (stereo not shown)	-2.51
COc1ccc(N2CCN(Cc3cc(OC)ccc3OC)CC2)cc1	0.605
CCOc1ccc(-c2csc(NC(=O)CCCOc3ccc(Cl)cc3)n2)cc1	-1.25
COc1cccc(C2C3=C(O)CC(C)(C)CC3=NC(C)=C2C(=O)Nc2c(F)cccc2F)c1OC (stereo not shown)	-4.67
COc1cc(C)c2c(=O)c(Oc3ccccc3)c(C(F)(F)F)oc2c1	-5.69
COc1cc(OC)c(C2SCCCS2)cc1OC	-1.22
CCOCCCNC(=O)Cn1nc(C)c2c(C)n(-c3ccccc3)nc2c1=O	-4
CC(=O)Nc1nc2nc(C)c(Cl)c(O)n2n1	0.401
O=C(CSc1cn(Cc2ccc(F)cc2)c2ccccc12)NCc1ccco1	3.8
Brc1ccc(-c2cc(-c3ccccc3)nc(N3CCCC3)n2)cc1	-7.7
CCOC(=O)c1c(C=O)c(C)n(Cc2ccccc2)c1C	-3.53
COc1ccc(C(=O)Nc2sc3c(c2C(=O)O)CC(C)(C)OC3)cc1OC	1.61
Cc1noc(C(=O)N2CC3(C)CC2CC(C)(C)C3)c1Cl (stereo not shown)	-5.25
CCn1c2ccccc2c2nnc(-n3nc(C)c(Cc4ccccc4)c3C)nc21	17.5
NS(=O)(=O)c1ccc(CCNC(=O)NC23CC4CC(CC(C4)C2)C3)cc1	-2.85
O=C(CCN1C(=O)c2ccccc2S1(=O)=O)Nc1ccccc1C(=O)O	-11.5
CCOC(=O)c1nnn(-c2nonc2N)c1CSc1nc2cc(OCC)ccc2[nH]1	1.62
Cc1cc(C)c2c(n1)sc1c(=O)n(Cc3ccccc3)nnc12	4.13
C=CCn1c2ccccc2n2c(C(=O)OCC)c(C)nc12	-3.14
O=C(NCCc1cccs1)c1cccc(Br)c1	-0.222
O=C(Nc1ccccc1Br)c1ccc(Cl)cc1	-0.192
CN1C2CCC1/C(=C\c1ccc(F)cc1)C(=O)/C2=C/c1ccc(F)cc1	-2.95
